The source of these data is PubChem BioAssay (NCI).

Values joined by “and” are separate entries in the source; they are usually repeats but may differ in a detail not shown here. Identical values can stand only once.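 Exposure lasted 48 hours, with cells grown in 96-well plates and compounds tested at five concentrations. Here, GI50 denotes the concentration required for 50% inhibition of growth. TGI is the concentration that stops growth completely.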

The assay relates to NCI-H322M lung. Put plainly: NCI tumour cell line growth inhibition, 48 h.

`Cc1cc2c(C(C)C)c(O)c(O)c(C=NCCO)c2c(O)c1-c1c(C)cc2c(C(C)C)c(O)c(O)c(C=NCCO)c2c1O` displayed a TGI of 15 µM. In turn, `C/C=C(/CCC1NCCC2c3ccccc3NC12)[Si](C)(C)C` (centres undefined) had a TGI of 26 µM.

In turn, `Cc1ccc(NC(=O)CC/C(CC(=O)C(C)(C)C)=N/NC(=O)C[N+](C)(C)C)cc1C` yielded a TGI of over 100 µM. `COC1(OC)N=C(N)C2(C#N)C3(C(=O)N(C(C)C)N=C3C)C12C#N` (centres undefined) had a TGI of over 100 µM. For the molecule `CCCCCCC/C=C/[C@H]1O[C@]2(O)C(=O)C=C3C[C@@H](O[C@@H]4O[C@H](CO)[C@@H](O)C(O)[C@@H]4O)C[C@@H]3[C@H]2C=C1C` (some centres undefined), the GI50 is 5.32 µM and the TGI was 10.5 µM.

Molecule `O=C(OC[C@H]1C[C@H]2C(=O)CCC[C@H]2O1)c1ccccc1` displayed a TGI of over 100 µM. Regarding `COc1cc2nc(-c3ccc(Cl)cc3)cc(OCCCN3CCCC3)c2cc1OC`, the GI50 is 3.36 µM and the TGI stood at 17.9 µM.

`O=C(Nc1ccc(Sc2ccc(N=Nc3c(O)c(S(=O)(=O)O)cc4cc(S(=O)(=O)O)ccc34)cc2)cc1)c1ccc(N=Nc2c(O)ccc3c(S(=O)(=O)O)cc(S(=O)(=O)O)cc23)cc1` yielded a TGI of over 100 µM. Same read-out and setting: then `COC(=O)c1ccc(NCc2c(O)ccc(O)c2Br)cc1Cl`, with over 100 µM. On the same count and under the same terms, then `CO/C(=C/C(=O)C(Cl)(Cl)Cl)CC/C(=C\C(=O)C(Cl)(Cl)Cl)OC`, with over 100 µM. `NS(=O)(=O)c1ccc(NCc2cnc3ccccc3n2)cc1` had a TGI of over 100 µM. The same measure, in the same setting: then `O=C1C=CC(=Nc2ccccc2)c2ccccc21`, with 19.6 µM.

The molecule `COC(=O)C1(C(=O)OC)N=C(C)OC1c1ccccn1` (centres undefined) yielded a TGI of over 100 µM. `c1cc(CSSCc2ccncc2)ccn1` came in with a TGI of over 100 µM.

Molecule `COc1cccc2c3ccccc3c3nc[nH]c3c12` gave a TGI of over 100 µM.

For the molecule `CNc1cc2nc3cc(NC)c(C)cc3cc2cc1C`, the GI50 was 1.03 µM and the TGI was 12.2 µM. `CCC/C(Cl)=N\OC(=O)Nc1cccc(C(F)(F)F)c1` displayed a TGI of over 100 µM. `CCOC(=O)C1=c2[nH]c3cccc4cccc(c43)n2C(=O)CC1c1ccccc1` (centres undefined) had a TGI of over 100 µM. Still for that read-out and setting: then `CCC(CCC(C)C1CCC2C3CC=C4CC(OC5OC(CO)C(O)C(O)C5O)CCC4(C)C3CCC12C)C(C)C` (centres undefined), with over 100 µM. Take `O=C1CCCCC=C1C[N+](=O)[O-]`: the GI50 was over 100 µM and the TGI is over 100 µM. In the case of `N#CCCN(CCC#N)c1ccc(C(N=Nc2ccccc2)=Nc2ccc(Cl)cc2)cc1`, the TGI is over 100 µM. For the molecule `c1cnc2c(c1)-n1cccc1C1(CCSC1)NN2` (centres undefined), the TGI is over 100 µM. Same read-out and setting: for `COC(=O)NC(=Nc1ccc(Oc2ccccc2)cc1NC=O)NC(=O)OC` the value was over 100 µM. For `COc1cccc(NC(=O)C(C)(C)C)c1SSc1c(NC(=O)C(C)(C)C)cccc1OC`, the TGI was over 100 µM.

`CC(=O)c1ccc(Nc2nc(Nc3ccc(F)cc3)nc(Nc3ccc(F)cc3)n2)cc1`: the GI50 was 17.7 µM and the TGI is over 100 µM. Turning to `COC(C(=O)C(O)C(C)O)C1Cc2cc3cc(OC4CC(OC5CC(O)C(O)C(C)O5)C(O)C(C)O4)c(C)c(O)c3c(O)c2C(=O)C1OC1CC(OC2CC(O)C(OC3CC(C)(O)C(O)C(C)O3)C(C)O2)C(O)C(C)O1` (centres undefined), the GI50 was 0.0112 µg/mL and 0.000901 µg/mL; the TGI was 0.0616 µg/mL and 0.121 µg/mL. For `COC(=O)C(Cc1ccccc1)NP(=O)(O)OCC1OC(n2cc(I)c(=O)[nH]c2=O)CC1O` (centres undefined), the TGI was over 100 µM. For the molecule `O=C(Nc1c(C(=O)NC2CCCCC2)[nH]c(=O)[nH]c1=O)c1ccc(Cl)cc1`, the TGI was over 100 µM. Consider `C=C1CCC2C3(C)COC(c4c(OC)cccc4OC)OC3CCC2(C)C1C/C=C1/C(=O)OCC1O` (centres undefined), for which the GI50 is 7.34 µM and the TGI worked out at 23.4 µM. The molecule `COC(=O)C1=CC2CC1C(S(=O)(=O)c1ccccc1)C2S(=O)(=O)c1ccccc1` (centres undefined) came in with a TGI of over 100 µM. With `C=C1C(=O)O[C@@H]2[C@H]1CCC(C)=C1C=CC(=O)[C@]12C`, the TGI was 58.6 µM. With `S=C(N/N=C/c1ccccn1)Nc1ccc(Cl)cc1`, the TGI was over 100 µM. As to `C=C1CC[C@@H]2[C@](C)(COC(C)=O)[C@H](OC(C)=O)CC[C@@]2(C)[C@@H]1CC(Nc1ccc(S(=O)(=O)Nc2cc(C)on2)cc1)C1=CCOC1=O` (some centres undefined), the GI50 is 4.68 µM and the TGI was determined as 16.1 µM. For `CO[C@]12C=C/C(=C(/C(=O)OCc3cccnc3)C(=O)CCCCCCCC[C@@]3(OC)C=C/C(=C(/C(=O)OCc4cccnc4)C(=O)CCCCCCCC1)O3)O2` the same measures were 3.63 µM and 15.8 µM. For the molecule `NC(=O)c1ncn(CCN2CCN(C(=O)NCCCCCCNC(=O)N3CCN(CCn4cnc(C(N)=O)c4N)CC3)CC2)c1N`, the TGI was over 100 µM. Still for that read-out and setting: then `Cc1ccc(C2SCC(=O)N2c2ccc(-c3ccc(-n4c(-c5ccccc5)nc5ccccc5c4=O)cc3)cc2)cc1` (centres undefined), with over 100 µM; and `COC1=CC(=O)c2c(cc(COP(=O)(OCC3OC(n4cc(F)c(=O)[nH]c4=O)CC3O)N(C)CCCCCl)n2C)C1=O` (centres undefined), with 95.7 µM. Take `O=c1c2c(c3ccccc3n1-c1ccccc1)NC(=S)NC2c1ccc(Cl)cc1` (centres undefined): the GI50 was 4.1 µM and the TGI was determined as 73.6 µM. In turn, `Cc1cc(C)nc(SCC(=O)OC2CC(C)CCC2C(C)C)n1` (centres undefined) gave a TGI of 69.9 µM. Same read-out and setting: then `CC(=O)OC12c3ccccc3-c3ccccc3C1C(C(=O)O)C2(Cl)C(=O)O` (centres undefined), with over 10 µM.

For the molecule `O=C(O)C1C2C=CC(C2)C1C(=O)O` (centres undefined), the GI50 is over 100 µM and the TGI was over 100 µM. Molecule `COc1ccc(P2(=S)SP(=S)(c3ccc(Cl)cc3)S2)cc1` (centres undefined) showed a TGI of over 100 µM.

In the case of `COc1cccc(-n2cc(-c3nc(Nc4cc(C)[nH]n4)c4ccccc4n3)nn2)c1`, the GI50 was 2.09 µM and the TGI worked out at 12 µM. For the molecule `Cc1nc2c(cc1C(=O)N/N=C/c1ccc([N+](=O)[O-])cc1)c(=O)n(C)c(=O)n2C`, the TGI is over 100 µM. Still for that read-out and setting: for `COc1ccc(-c2nnc3n(Cc4ccccc4)c4ccccc4n3c2=O)cc1` the value was over 100 µM; for `CC1=NN2C(c3ccc(C)cc3)=CSC2=NC(C)(C)C1`, over 100 µM. As for `Cc1ccc(/C=C/C(=N/N=C(N)N)c2ccccc2)cc1`, the GI50 is 6.87 µM and the TGI is 21.1 µM.

For the molecule `CC1(c2cccc(N)c2)C2C(=O)NC(=O)C1C(=O)NC2=O` (centres undefined), the TGI is over 100 µM. On to `Cc1ccc(C2N=C(N)NC3=C2CCOc2c3ccc3ccccc23)cc1` (centres undefined), for which the TGI is over 92.2 µM. `O=C(O)CC1NC(/C(=C/c2ccccc2O)NC(=O)c2ccccc2)OC1=O` (centres undefined) displayed a TGI of over 100 µM. In the case of `CCOC(=O)NC(C(=O)OCC)(N1CCN(c2cc3c(cc2F)c(=O)c(C(=O)O)cn3CC)CC1)C(F)(F)F` (centres undefined), the TGI is over 100 µM.
